Test results from publication PMC4336329 (PLoS ONE, 2015).
In all, about 310,000 compounds went through this assay and about 14,000 (4.5%) showed an effect of 50% or more. Effects have a minus sign here. The list shows a part of the results.

molecular target: human ether-à-go-go-related gene (hERG) potassium channel (human, UniProt Q12809); experiment: primary screen, population patch clamp on CHO cells stably expressing hERG
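Further: peak tail current of the secondary pulse compared with the same well before compound.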

Chain of human ether-à-go-go-related gene (hERG) potassium channel (Q12809 whole entry, looked up): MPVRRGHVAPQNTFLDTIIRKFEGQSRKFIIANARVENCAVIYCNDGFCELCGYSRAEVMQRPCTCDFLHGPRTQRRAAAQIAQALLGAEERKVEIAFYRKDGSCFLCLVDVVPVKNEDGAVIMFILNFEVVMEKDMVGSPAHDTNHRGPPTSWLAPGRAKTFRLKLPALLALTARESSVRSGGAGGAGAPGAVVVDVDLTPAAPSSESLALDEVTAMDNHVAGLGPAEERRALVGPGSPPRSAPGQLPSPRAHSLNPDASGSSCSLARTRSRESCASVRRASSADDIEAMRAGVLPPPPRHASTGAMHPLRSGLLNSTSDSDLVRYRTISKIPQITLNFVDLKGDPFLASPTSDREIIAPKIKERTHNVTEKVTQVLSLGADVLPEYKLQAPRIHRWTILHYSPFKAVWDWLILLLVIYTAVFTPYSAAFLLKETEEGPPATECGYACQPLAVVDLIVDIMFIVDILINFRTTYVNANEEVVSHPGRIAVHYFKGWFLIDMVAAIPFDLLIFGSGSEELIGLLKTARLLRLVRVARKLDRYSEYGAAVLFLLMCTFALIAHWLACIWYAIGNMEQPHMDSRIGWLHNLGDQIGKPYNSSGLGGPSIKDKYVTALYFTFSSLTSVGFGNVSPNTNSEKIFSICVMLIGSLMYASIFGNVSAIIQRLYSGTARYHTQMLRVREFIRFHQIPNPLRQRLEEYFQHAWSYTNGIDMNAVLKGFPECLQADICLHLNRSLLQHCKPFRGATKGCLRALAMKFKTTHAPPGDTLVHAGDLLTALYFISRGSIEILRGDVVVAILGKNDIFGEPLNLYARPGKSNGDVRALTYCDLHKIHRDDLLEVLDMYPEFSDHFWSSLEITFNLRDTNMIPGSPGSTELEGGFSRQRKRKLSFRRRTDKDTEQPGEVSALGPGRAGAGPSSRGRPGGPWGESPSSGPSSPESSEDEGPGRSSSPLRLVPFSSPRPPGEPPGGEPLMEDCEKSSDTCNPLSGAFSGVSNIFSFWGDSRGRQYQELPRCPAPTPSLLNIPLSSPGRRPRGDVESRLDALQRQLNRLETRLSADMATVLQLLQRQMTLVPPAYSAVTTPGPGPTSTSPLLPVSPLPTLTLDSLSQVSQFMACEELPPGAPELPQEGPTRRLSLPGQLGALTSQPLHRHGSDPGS

SMILES | hERG current change (%, negative = inhibition) at 10uM
Cc1ccc(NC(=O)c2ccc(=O)n(CC(=O)Nc3ccccc3)n2)cc1 | 21.9%
Cc1cccc(NC(=O)c2ccccc2O)c1C | -7.72%
COc1ccccc1OP(=O)(O)Oc1ccccc1OC | 26.9%
O=C(/C=C/c1cccc(Br)c1)NC1CCN(Cc2ccccc2)CC1 | -71.1%
C=CCNc1nc2ccccc2nc1NS(=O)(=O)c1ccc(Cl)cc1 | 5.94%
COc1ccc(CCNC2=NCC(C)S2)cc1 (stereo not drawn) | -4.98%
c1ccc(C2CC(c3cccs3)Nc3nnnn32)cc1 (stereo not drawn) | 10.3%
CC(C)(C)NC(=O)C(c1cccs1)N(CC1CCCO1)C(=O)c1ccc(-c2ccccc2)[nH]1 (stereo not drawn) | 24%
CCOP(=O)(c1ccccc1)C(O)c1ccccc1 (stereo not drawn) | 21.7%
COc1cc(NC(=O)CSc2nc(=O)n(CCCN3CCOCC3)c3c2CCC3)cc(OC)c1 | -34.9%
CCC(=O)Nc1sc2c(c1C(=O)N(C)C)CCCCC2 | 16.8%
CC1Cc2nc(SCC(=O)NCc3ccco3)n(Cc3ccccc3)c(=O)c2S1 (stereo not drawn) | -36.9%
O=C(CCCn1c(=S)[nH]c2ccccc2c1=O)NCCSCc1ccccc1 | 6.73%
CC1CN(S(=O)(=O)c2cccc(C(F)(F)F)c2)CN1C(=O)N1CCOCC1 (stereo not drawn) | 5.21%
CC(=O)Nc1ccc(OCC(O)Cn2nc(C)nc2C)cc1 (stereo not drawn) | 16.5%
Cc1cc(=O)oc2cc(OCC(=O)OCC(=O)N(CCC#N)c3ccccc3)ccc12 | 6.04%
CCO/N=C(/c1nonc1N)N1CCN(c2ccc([N+](=O)[O-])cc2)CC1 | 2%
Cc1c(C(=O)N(C)C2CCCCC2)sc2ncnc(N3CCN(c4ccccc4)CC3)c12 | -29.3%
COC(=O)c1cc(NC(=O)Cn2c(=O)cnc3ccccc32)cc(C(=O)OC)c1 | 9.97%
CC(C)(C)c1ccc(-c2n[nH]c(=S)n2Cc2ccccc2)cc1 | 8.37%
O=C(O)C1CCN(C(=O)c2ccccc2Cl)CC1 | -0.656%
O=C(Nc1ccc(S(=O)(=O)NCCc2ccccc2)cc1)c1ccncc1 | -10.3%
Cc1nc(-c2ccccn2)nc(SCC(=O)c2ccc(F)cc2)c1Cl | -6.36%

SMILES | hERG current change (%, negative = inhibition) at 10uM
C=CCn1c(-c2ccccc2)ccc(C#N)c1=O | -7.16%
Cc1cc2c(sc3c(C)ccc(C)c32)c(C)n1.Cl | 3.48%
NC(=O)C1CCN(Cc2nc3cc(Cl)ccc3c(=O)[nH]2)CC1 | 5.22%
OCC1CCCN(C(=S)Nc2ccc(Nc3ccccc3)cc2)C1 (stereo not drawn) | 1.17%
Cc1ccccc1C(=O)NCC(c1ccco1)N1CCc2ccccc2C1 (stereo not drawn) | -22.7%
CCn1c(=O)n(CC(=O)Nc2cc(OC)c(OC)c(OC)c2)c(=O)c2ccccc21 | -8.9%
Cc1ccc(/C=C2\SC(=S)N(C3CCS(=O)(=O)C3)C2=O)cc1 (stereo not drawn) | 0.453%
Cc1ccc(C(=O)NS(=O)(=O)c2ccccc2)cc1 | 18.2%
O=C(COc1ccccc1)N1CCN(CCN2C(=O)c3cccc4cccc(c34)C2=O)CC1 | -8.43%
COc1cc(C(=O)OCc2cccc(S(=O)(=O)N3CCOCC3)c2)ccc1OCC(C)C | 11.8%
COc1ccc(CC(=O)O)cc1O | 9.5%
CCCCCc1nnc(NC(=O)C2=COCCO2)s1 | -8.55%
COc1ccc(OCC(=O)N/N=C(/C)Cc2ccccc2)cc1 | -2.86%
CC(=O)Nc1ccccc1C(=O)C(=O)Nc1ccc(C)c(C)c1 | 21%
CCN(Cc1ccccc1)C(=O)c1ccc(CS(=O)c2ccccc2C)o1 (stereo not drawn) | -43.9%
O=C(O)CC1(CC(=O)NCc2ccc(Cl)cc2)CCCCC1 | 8.75%
O=C(O)[C@H](Cc1ccccc1)N1C(=O)c2c(Cl)c(Cl)c(Cl)c(Cl)c2C1=O | 2.13%
COC(=O)c1c(NC(=O)/C=C/c2ccco2)sc2c1CCC2 | 17.6%
CCN(C(=O)COc1ccccc1[N+](=O)[O-])C1CCS(=O)(=O)C1 (stereo not drawn) | 0.104%
CCOC(=O)CSc1nc2sccc2c(=O)[nH]1 | 5.88%
Cc1sc(NC(=O)C2CCCO2)c(C(N)=O)c1C (stereo not drawn) | 15.4%
O=c1[nH]c(CN2CCN(c3ccccc3)CC2)nc2ccccc12 | 1.55%
COc1cc(C)ccc1OCC(=O)OCC(=O)c1cc(C)n(CC2CCCO2)c1C (stereo not drawn) | -21.7%

SMILES | hERG current change (%, negative = inhibition) at 10uM
O=C1CCCN2N=C(SCC(=O)Nc3ccc([N+](=O)[O-])cc3)SC2=N1 | -5.23%
COc1ccc(Cl)cc1NC(=O)CSc1nc(NS(=O)(=O)c2ccc(C)cc2)cc(=O)[nH]1 | 4.52%
COc1ccc(C)cc1NS(=O)(=O)c1ccc(NC(=O)CN(c2cc([N+](=O)[O-])ccc2C)S(C)(=O)=O)cc1 | 0.466%
COc1ccc(C2C(C(=O)Nc3ccc(OC)c(OC)c3)c3ccccc3C(=O)N2C)cc1 (stereo not drawn) | 27.7%
Cn1c(C(=O)OCC(=O)NCC2CCCO2)cc2sccc21 (stereo not drawn) | 0.355%
Cc1ccc(Cn2nnc3c(=O)n(Cc4cc(C)ccc4C)cnc32)cc1 | 10.7%
O=S(NC1CCCCC1)C12CC3CC(CC(C3)C1)C2 (stereo not drawn) | -12.4%
O=C(CCCC(=O)N1CCN(c2ccccc2F)CC1)N1CCN(c2ccccc2F)CC1 | -25.2%
CCN(CC)C(=O)C1=C(C)NC(=S)NC1c1ccc(C)s1 (stereo not drawn) | -6.31%
O=S(=O)(NCc1ccccc1)c1cccc2nsnc12 | 5.77%
NC1=NC[C@@H](Cc2ccc(O)cc2)N1CC1CCCCC1 | 19.2%
CCOC(=O)c1ccc(NC(=O)COc2ccccc2CNC2CCCC2)cc1.Cl | -78.1%
CCC(C(=O)NC1C(=O)N2C(C(=O)O)=C(CSc3nnc(C)s3)CSC12)c1ccccc1 (stereo not drawn) | 15.4%
COc1ccc(N/C(N)=N/c2nc(C)cc(C)n2)c(OC)c1 | -26.4%
CSCC[C@H](NC(=O)c1cccs1)C(=O)N1CCC2(CC1)NCCc1[nH]cnc12 | 10.2%
COc1ccccc1CN1CCCC(C(=O)N2CCCCC2)C1.O=C(O)C(=O)O (stereo not drawn) | 10.6%
CC(=O)Nc1ccc2nc(NC(=O)CCc3ccccc3)sc2c1 | 14.3%
Cc1c(O)c(CN2CCCC2)cc2c1oc(=O)c1ccccc12 | -29.9%
Cn1cnnc1SCC(=O)Nc1cc(S(=O)(=O)N2CCCCC2)ccc1Cl | -0.0108%
Cc1ccc(NC(=S)NNC(=O)c2ccco2)cc1 | 7.98%
CC(C)(C)C(=O)Oc1ccc2cc(-c3ccc4ccccc4n3)c(=O)oc2c1 | -10.5%
CNC(=O)C1C(=S)NC(N)=C(C#N)C1c1ccccc1 (stereo not drawn) | 8.83%
Cc1ccc(S(=O)(=O)NCc2nc3nc(C)cc(C)n3n2)c(C)c1 | -4.75%

SMILES | hERG current change (%, negative = inhibition) at 10uM
NC(=O)CN1C(=O)/C(=c2\sc3nc(=O)c(Cc4ccccc4)nn3c2=O)c2ccccc21 | 10.1%
N/C(=N\OC(=O)CCCc1ccccc1)c1ccccn1 | 20.1%
CC(C)C(C(=O)NC(C)(C)C)N1C(=O)c2ccccc2C1=O (stereo not drawn) | 2.52%
CCOC(=O)c1ccc(NC(=O)NC2CC3CCC(C2)N3Cc2nnnn2Cc2ccco2)cc1 (stereo not drawn) | -21.1%
NC(=O)c1cc2ccccc2o/c1=N/NC(=O)c1cccs1 | -48.3%
O=C(O)c1ccc(OCc2ccc(C(=O)O)o2)cc1 | 22.5%
COc1ccccc1CC(=O)N1CCC(n2nccc2NC(=O)C2CCOC2)CC1 (stereo not drawn) | 4.83%
CCOC(=O)C1(CCc2ccccc2)CCN(C(C)CSC)CC1 (stereo not drawn) | -66.6%
Cc1ccc(N2C(=O)C(Cl)=C(N3CCN(C)CC3)C2=O)c(C)c1 | 3.06%
COc1ccc(C(=O)/C=C/c2ccc(OC3CSC3)cc2)cc1 | -1.08%
CC1CCN(c2ccc(NC(=S)NC(=O)c3ccco3)cc2)CC1 | 1.81%
O=C(CSc1nc(-c2ccccc2Cl)ns1)c1ccc(Cl)cc1 | 19.2%
NC(=O)C1CCN(C(=O)/C=C/c2ccccc2[N+](=O)[O-])CC1 | -5.54%
O=C(O)CCNc1nc(-c2ccccc2)c2cc(Br)ccc2n1 | 4.59%
CCCCn1c(N)c(C(=O)OCC2CCCO2)c2nc3ccccc3nc21 (stereo not drawn) | -49.1%
CC(C)=CC(=O)Nc1nnc(-c2ccccc2C)s1 | 14.1%
O=C(Cn1ccc2ccccc2c1=O)NCCC(=O)Nc1cccc(Cl)c1 | 18.6%
COc1cccc(CNC(=O)CCS(=O)(=O)c2cccc3nsnc23)c1 | 3.14%
c1ccc(CCC2CCCCN2Cc2nc(C3CC3)no2)cc1 (stereo not drawn) | -16.8%
CCN(CC)S(=O)(=O)c1ccc(NC(=O)c2c(-c3ccccc3)noc2C)cc1 | -15.7%
CCC1(C(=O)c2ccccc2)C(c2ccc([N+](=O)[O-])cc2)C1(C(=O)OC)C(=O)OC (stereo not drawn) | -7.87%
